Data taken from US20230046078A1, “METHODS OF USING SUBSTITUTED FLAVONES FOR TREATING BONE DISORDERS” (EMORY UNIVERSITY, priority 2021, published 2023).

Assays:
Assay type in all cases: cell-based, Murine
RAW264.7 cells [1] = experiment: RANK-L-induced RAW264.7 osteoclastogenesis (TRAP staining); details: 30 ng/ml RANK-L, day 4; BDNF 50 ng/ml or 7,8 DHF 0.5 μM
Procedure: (§1) The medium was changed to α-MEM with 5% FBS, 0.1% penicillin/streptomycin. The receptor activator of NF-κB ligand (RANK-L, 30 ng/ml) was added to induce osteoclast differentiation.
The cells were washed in PBS twice, fixed in fixing solution for 10 minutes at room temperature, and then stained the TRAP activity with the TRACP&ALP double-staining kit (TaKaRa, Japan, Cat. #MK300).
Moreover, RANK-L independently induces RAW264.7 cell osteoclastic differentiation, which efficiently generates osteoclasts in vitro.

MC3T3-E1 cells [2] = details: OIM, BDNF 50 ng/ml or 7,8 DHF 0.5 μM; for osteoblast cell differentiation (ALP staining): 14 days
Procedure: The Cells were washed in PBS twice, fixed for 10 minutes with fixing buffer at room temperature, and stained with ALP staining with the TRACP&ALP double-staining kit (TaKaRa, Japan, Cat. #MK300).
Then the cells were stained with 2% Alizarin Red S solution (Sigma, St. Louis, Mo., USA) to detect calcification.

RAW264.7 cells [3] = experiment: Western blotting of RANK-L-induced RAW 264.7 cells; details: RANK-L-induced RAW264.7 cells
Procedure: as §1

MC3T3-E1 cells [4] = details: OIM-induced, 4 days; BDNF 50 ng/ml or 7,8 DHF 0.5 μM

O=c1cc(-c2ccccc2)oc2c(O)c(O)ccc12 [7,8-DHF]
RANK-L-induced increase of multinucleated osteoclastic cells (RAW264.7 cells [1]): diminished
osteoblast cell differentiation (ALP staining) (MC3T3-E1 cells [2]): further escalated
C/EBPβ level (RAW264.7 cells [3]): greatly reduced
C/EBPβ/AEP pathway (RAW264.7 cells [3]): inhibited
p-TrkB and p-MAPK and p-AKT signaling (RAW264.7 cells [3]): activated
p-C/EBPβ expression (MC3T3-E1 cells [4]): distinctly repressed
total C/EBPβ expression (MC3T3-E1 cells [4]): distinctly repressed

BDNF: Brain-derived neurotrophic factor, a neurotrophin; TrkB ligand
RANK-L-induced increase of multinucleated osteoclastic cells (RAW264.7 cells [1]): diminished
osteoblast cell differentiation (ALP staining) (MC3T3-E1 cells [2]): further escalated
mineralization / calcium deposition (Alizarin Red S staining) (MC3T3-E1 cells [2]; 21 days): strongly stimulates
C/EBPβ level (RAW264.7 cells [3]): greatly reduced
C/EBPβ/AEP pathway (RAW264.7 cells [3]): inhibited
p-TrkB and p-MAPK and p-AKT signaling (RAW264.7 cells [3]): activated
p-C/EBPβ expression (MC3T3-E1 cells [4]): distinctly repressed
total C/EBPβ expression (MC3T3-E1 cells [4]): distinctly repressed
